Assay results taken from publication PMC6919601, “Identification of Plasmodium dipeptidyl aminopeptidase allosteric inhibitors by high throughput screening” (PLoS ONE, 2019).
Hit rate of the full screen: of about 110,000 compounds, about 230 (0.21%) showed an effect of 50% or more. The list shows a part of the results.

Molecular target: DPAP1 (Plasmodium falciparum, UniProt Q8IIJ9)
Assay: primary screen, percent inhibition; read by cleavage of a fluorogenic dipeptide substrate; higher = more effect of the substance
Set-up: species or system P. falciparum D10 trophozoite lysates; single well
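Also: 30 min substrate incubation versus DMSO and 10 µM JCP410 controls.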

DPAP1, sequence (Q8IIJ9 whole entry, looked up): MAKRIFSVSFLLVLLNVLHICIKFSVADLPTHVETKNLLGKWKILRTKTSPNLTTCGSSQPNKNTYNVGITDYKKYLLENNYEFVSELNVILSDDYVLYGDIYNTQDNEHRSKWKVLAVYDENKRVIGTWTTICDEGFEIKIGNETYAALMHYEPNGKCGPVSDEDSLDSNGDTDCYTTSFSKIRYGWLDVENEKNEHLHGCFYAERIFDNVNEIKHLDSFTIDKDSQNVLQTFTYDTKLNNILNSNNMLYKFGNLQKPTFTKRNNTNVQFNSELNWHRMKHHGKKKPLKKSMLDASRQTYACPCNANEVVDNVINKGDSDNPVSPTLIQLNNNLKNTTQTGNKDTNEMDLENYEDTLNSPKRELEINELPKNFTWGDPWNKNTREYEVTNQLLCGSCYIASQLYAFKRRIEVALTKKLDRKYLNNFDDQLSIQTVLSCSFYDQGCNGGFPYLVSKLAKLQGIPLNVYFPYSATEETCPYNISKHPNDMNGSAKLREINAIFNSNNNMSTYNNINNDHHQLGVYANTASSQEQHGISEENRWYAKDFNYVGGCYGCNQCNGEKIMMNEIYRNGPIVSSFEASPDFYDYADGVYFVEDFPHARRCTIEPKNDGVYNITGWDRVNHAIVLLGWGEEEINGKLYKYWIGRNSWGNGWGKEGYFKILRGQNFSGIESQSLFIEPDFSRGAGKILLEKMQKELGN

Structure (SMILES)	% Inhibition @ 10 uM
CCCCNc1nc2ccccc2c2nc(-c3cccnc3)nn12	0.981%
O=C(O)c1ccc(-n2cnc3cccnc32)cc1	0.0198%
N#Cc1ccc(-c2nc3cc(Cl)c(F)cc3[nH]2)cc1	1.84%
CN1C(=O)c2[nH]nc(-c3ccccc3)c2C1c1cccc(O)c1 (stereo not shown)	-2.84%
COc1cc(OC)c(C2NC(S)=NC(C)=C2C(C)=O)cc1OC (stereo not shown)	-7.35%
CC(Nc1nc2ccccc2n2nnnc12)C12CC3CC(CC(C3)C1)C2 (stereo not shown)	5.84%
CC(C)C[C@H](NS(=O)(=O)Cc1ccccc1)C(=O)NCC#N	0.174%
CCOC(=O)N1CCN(C(=O)Cn2nc(CC)n3c(cc4sccc43)c2=O)CC1	-1.58%
COP(=O)(OC)C(Nc1ccc([N+](=O)[O-])cc1)c1ccc(Cl)cc1 (stereo not shown)	1.7%
COc1ccc(C)cc1-n1cnc2cc(C(=O)NCc3ccco3)ccc21	2.8%
COC(=O)C1=C(C)N=C(C)/C(=C(/O)OC)C1c1ccc(Br)cc1 (stereo not shown)	-2.42%
CC(C)(C)C(=O)Nc1cccc(NC(=O)C(C)(C)C)n1	-10%
Cc1nc2c(c(C)c1CCC(=O)NCCC1=CCCCC1)c(=O)n(C)c(=O)n2C	5.32%
O=C(OCc1nc2ccccc2s1)c1cccs1	-3.34%
N#CCc1ccc(NC(=O)c2ccc(COc3ccc(Cl)cc3)o2)cc1	3.57%
Cc1ccsc1-c1nc(CSCC(=O)NCc2cccnc2)c(C)o1	3.99%
CCOC(=O)c1c(C)[nH]c(C)c1S(=O)(=O)NCCN1CCCCCC1	-7.53%
O=C1C(=O)N2C(=C1C(=O)N1CCCCC1)c1ccccc1CC21CCCC1	1.93%
COc1ccccc1CNC(=O)c1cc(O)nc2ccc(S(=O)(=O)N3CCCC(C)C3)cc12 (stereo not shown)	-1.34%
CCN(CC)C(=O)c1sc(N)c(C(=O)OC)c1C	13.7%
CCN(Cc1nc(-c2cccc(C)c2)no1)C(=O)NC1CCCCC1	-7.24%
Cc1ccc(-n2cc(-c3ccccc3)n(-c3ccccc3)c2=O)cc1	-3.49%
COc1ccc2c(c1)N(S(=O)(=O)c1ccccc1)CCC2=O	-3.23%
COc1ccc(CN(C)CCN(C)C)cc1Br	-1.48%
CS(=O)(=O)N(CC(=O)Nc1ccc(Cl)cc1)c1ccc(Br)cc1	-3.94%
O=C(CN(Cc1ccccc1Cl)S(=O)(=O)c1ccc(Cl)cc1)Nc1ccc2c(c1)OCO2	-1.27%
CCC1CCC(N2CCCC(C(N)=O)C2)CC1 (stereo not shown)	-3.8%
CCC(=O)NC1=NC(=O)/C(=C/c2ccc(OCc3ccccc3F)cc2)S1	-2.32%
